± gives the uncertainty stated by the source. The sequences are guide strands of siRNAs; only the seed at positions 2 to 7 varies.
Columns and labels:
3LL = test: cell viability relative to siNT1 control; higher = less toxic; details: concentration: 10 nM; 96 h; Mus musculus
M565 = test: cell viability relative to lipid-only control; HeyA8 human ovarian and H460 human lung cancer; M565 mouse liver and 3LL mouse lung cancer; siNT1 is a non-toxic control siRNA; higher = less toxic; details: concentration: 10 nM; 96 h; Mus musculus
Description: (§1)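 Arrayed screen of 4096 siRNA duplexes, each carrying one of all possible 6mer seeds at guide-strand positions 2-7 in a fixed neutral 19mer scaffold (constant flanks: U at position 1, then ACAUGUAAACCA, plus a 3' AA overhang). The passenger strand is 2'-O-methylated at positions 1-2 so only the guide strand loads into RISC. Duplexes were reverse-transfected at 10 nM with RNAiMAX in triplicate in 384-well plates; viability was read by CellTiter-Glo ATP content 96 h after transfection. Values are % viability normalised to lipid-only wells (HeyA8, H460, M565) or to siNT1 (3LL).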

HeyA8 = test: as above; details: concentration: 10 nM; 96 h; Homo sapiens
Description: as §1

H460 = test: as above; details: concentration: 10 nM; 96 h; Homo sapiens
Description: as §1
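For cell viability relative to lipid-only control in this document: reverse lipid transfection in 384-well plates, in triplicate, of duplexes on a non-toxic 19mer backbone with passenger strand 2′-O-methylated at positions 1 and 2, luminescence viability read-out.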
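For cell viability relative to siNT1 control in this document: Luminescence-based viability of cells reverse transfected in 384-well plates with lipid-complexed siRNAs built on a non-toxic 19mer backbone whose passenger strand carries 2′-O-methyl groups at positions 1 and 2, triplicates.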

## UCUUACCACAUGUAAACCAAA
3LL
  cell viability: 89.8 ± 16%
M565
  cell viability: 38.4 ± 9.1%
HeyA8
  cell viability: 37.6 ± 3.8%
H460
  cell viability: 48.9 ± 1.7%

## UAAGAACACAUGUAAACCAAA
3LL
  cell viability: 82.2 ± 11%
M565
  cell viability: 70.7 ± 3.7%
HeyA8
  cell viability: 75 ± 5.5%
H460
  cell viability: 63.8 ± 4.6%

## UAGUUGGACAUGUAAACCAAA
3LL
  cell viability: 19.1 ± 2.3%
M565
  cell viability: 25.7 ± 7.7%
HeyA8
  cell viability: 27.8 ± 0.74%
H460
  cell viability: 47.3 ± 9.7%

## UUUCCCGACAUGUAAACCAAA
3LL
  cell viability: 75 ± 3.1%
M565
  cell viability: 69.1 ± 11%
HeyA8
  cell viability: 81.2 ± 8.6%
H460
  cell viability: 63.6 ± 3.7%

## UUACAAGACAUGUAAACCAAA
3LL
  cell viability: 98.9 ± 3.2%
M565
  cell viability: 68.6 ± 4.8%
HeyA8
  cell viability: 99.6 ± 3.8%
H460
  cell viability: 71.1 ± 0.97%

## UAUCGAGACAUGUAAACCAAA
3LL
  cell viability: 125 ± 13%
M565
  cell viability: 110 ± 12%
HeyA8
  cell viability: 96.8 ± 2.6%
H460
  cell viability: 105 ± 4.7%

## UUCCGACACAUGUAAACCAAA
3LL
  cell viability: 59.2 ± 5.3%
M565
  cell viability: 65.6 ± 15%
HeyA8
  cell viability: 87.4 ± 11%
H460
  cell viability: 89.1 ± 6.8%

## UAAGCCGACAUGUAAACCAAA
3LL
  cell viability: 78.1 ± 7.8%
M565
  cell viability: 49.8 ± 7.8%
HeyA8
  cell viability: 81.1 ± 10%
H460
  cell viability: 101 ± 11%

## UCUAAGCACAUGUAAACCAAA
3LL
  cell viability: 90.9 ± 12%
M565
  cell viability: 62.6 ± 15%
HeyA8
  cell viability: 77.4 ± 4.5%
H460
  cell viability: 56 ± 4.2%

## UCUGGGUACAUGUAAACCAAA
3LL
  cell viability: 35.6 ± 6.6%
M565
  cell viability: 85.1 ± 17%
HeyA8
  cell viability: 52.1 ± 4.8%
H460
  cell viability: 26.9 ± 3.5%

## UACAUGUACAUGUAAACCAAA
3LL
  cell viability: 83.3 ± 9.1%
M565
  cell viability: 32.3 ± 4.8%
HeyA8
  cell viability: 27 ± 3.1%
H460
  cell viability: 69.6 ± 14%

## UGGGCACACAUGUAAACCAAA
3LL
  cell viability: 25.3 ± 6.3%
M565
  cell viability: 15.5 ± 5.2%
HeyA8
  cell viability: 11.6 ± 2.3%
H460
  cell viability: 30 ± 3.2%

## UACGUACACAUGUAAACCAAA
3LL
  cell viability: 80 ± 7.4%
M565
  cell viability: 95.6 ± 3.7%
HeyA8
  cell viability: 30.65 ± 0.21%
H460
  cell viability: 66.7 ± 12%

## UGGUGGGACAUGUAAACCAAA
3LL
  cell viability: 2.2 ± 0.66%
M565
  cell viability: 6.95 ± 1.4%
HeyA8
  cell viability: 1.66 ± 0.28%
H460
  cell viability: 5.41 ± 0.34%

## UAAAUGCACAUGUAAACCAAA
3LL
  cell viability: 30 ± 7.1%
M565
  cell viability: 19.9 ± 3.7%
HeyA8
  cell viability: 31.2 ± 4.9%
H460
  cell viability: 29.7 ± 1.2%

## UUGGUCGACAUGUAAACCAAA
3LL
  cell viability: 86.7 ± 4.9%
M565
  cell viability: 121 ± 22%
HeyA8
  cell viability: 70.3 ± 7%
H460
  cell viability: 58.8 ± 9.6%

## UGACCUCACAUGUAAACCAAA
3LL
  cell viability: 14.3 ± 1.9%
M565
  cell viability: 10.6 ± 3%
HeyA8
  cell viability: 81 ± 5.7%
H460
  cell viability: 38.7 ± 8.2%

## UGAAUCCACAUGUAAACCAAA
3LL
  cell viability: 18.6 ± 7.2%
M565
  cell viability: 13 ± 3.6%
HeyA8
  cell viability: 39.5 ± 1.4%
H460
  cell viability: 42.3 ± 6.5%

## UCUUAAAACAUGUAAACCAAA
3LL
  cell viability: 101 ± 12%
M565
  cell viability: 87.1 ± 17%
HeyA8
  cell viability: 87.4 ± 8.7%
H460
  cell viability: 76.1 ± 13%

## UGAAAUGACAUGUAAACCAAA
3LL
  cell viability: 105 ± 14%
M565
  cell viability: 67 ± 9.1%
HeyA8
  cell viability: 73 ± 5.4%
H460
  cell viability: 90 ± 15%

## UGUUUUGACAUGUAAACCAAA
3LL
  cell viability: 72.3 ± 9.9%
M565
  cell viability: 90.2 ± 15%
HeyA8
  cell viability: 78.9 ± 14%
H460
  cell viability: 66.6 ± 5.2%

## UACGCGUACAUGUAAACCAAA
3LL
  cell viability: 84.6 ± 3.8%
M565
  cell viability: 63.5 ± 3.6%
HeyA8
  cell viability: 92.4 ± 10%
H460
  cell viability: 65.5 ± 3.3%

## UUUACGAACAUGUAAACCAAA
3LL
  cell viability: 102 ± 3.7%
M565
  cell viability: 74.8 ± 8.6%
HeyA8
  cell viability: 98 ± 5.8%
H460
  cell viability: 95.7 ± 9.8%

## UUCAUUCACAUGUAAACCAAA
3LL
  cell viability: 80.4 ± 10%
M565
  cell viability: 40 ± 7.9%
HeyA8
  cell viability: 70.9 ± 2.6%
H460
  cell viability: 61.6 ± 5%

## UUCCUCAACAUGUAAACCAAA
3LL
  cell viability: 66.6 ± 14%
M565
  cell viability: 65.2 ± 12%
HeyA8
  cell viability: 87.5 ± 2.3%
H460
  cell viability: 55.2 ± 13%

## UGGACAAACAUGUAAACCAAA
3LL
  cell viability: 66.5 ± 3.4%
M565
  cell viability: 18.3 ± 6.7%
HeyA8
  cell viability: 83.5 ± 1.4%
H460
  cell viability: 64.9 ± 6.9%

## UGUUCCUACAUGUAAACCAAA
3LL
  cell viability: 23.1 ± 7.8%
M565
  cell viability: 23.2 ± 1.3%
HeyA8
  cell viability: 8.94 ± 1%
H460
  cell viability: 41.5 ± 10%

## UUGGUCUACAUGUAAACCAAA
3LL
  cell viability: 77.6 ± 10%
M565
  cell viability: 106 ± 11%
HeyA8
  cell viability: 82.9 ± 2.5%
H460
  cell viability: 52 ± 3.4%

## UAAAGACACAUGUAAACCAAA
3LL
  cell viability: 95.6 ± 9.5%
M565
  cell viability: 58.8 ± 8.1%
HeyA8
  cell viability: 76.7 ± 8.5%
H460
  cell viability: 79.2 ± 6.8%

From the supplement of paper PMC6206098
